# From the supplement of paper PMC8728848
# Some of the results follow.
# B1: LSECtin (Homo sapiens), Q6UXB4 (protein)
# chain: MDTTRYSKWGGSSEEVPGGPWGRWVHWSRRPLFLALAVLVTTVLWAVILSILLSKASTERAALLDGHDLLRTNASKQTAALGALKEEVGDCHSCCSGTQAQLQTTRAELGEAQAKLMEQESALRELRERVTQGLAEAGRGREDVRTELFRALEAVRLQNNSCEPCPTSWLSFEGSCYFFSVPKTTWAAAQDHCADASAHLVIVGGLDEQGFLTRNTRGRGYWLGLRAVRHLGKVQGYQWVDGVSLSFSHWNQGEPNDAWGRENCVMMLHTGLWNDAPCDSEKDGWICEKRHNC
# Assays:
# Test in all cases: glycan array binding signal (z-score within array); higher = stronger binding
# Conditions in all cases: glycan notation: IUPAC condensed, linker removed
# [1] = target: Neu5Ac(a2-3)Gal(b1-4)[Fuc(a1-3)]GlcNAc
# Summary of the method: (§1)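 Arrays were curated from the Consortium for Functional Glycomics database, 3228 in total, and kept only where the protein sequence was available. Binding is expressed as a within-array Z-score. This score was averaged across arrays of the same protein sequence at different concentrations or buffers and across linkers, and negative values can be read as non-binding.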
# [2] = target: Neu5Ac(a2-3)Gal(b1-4)[Fuc(a1-3)]GlcNAc(b1-2)Man
# Summary of the method: as §1
# [3] = target: Neu5Ac(a2-3)Gal(b1-4)[Fuc(a1-3)]GlcNAc(b1-3)Gal
# Summary of the method: as §1
# [4] = target: Neu5Ac(a2-3)Gal(b1-4)[Fuc(a1-3)]GlcNAc(b1-3)Gal(b1-4)GlcNAc
# Summary of the method: as §1
# [5] = target: Neu5Ac(a2-3)Gal(b1-4)[Fuc(a1-3)]GlcNAc(b1-3)Gal(b1-4)[Fuc(a1-3)]GlcNAc(b1-3)Gal(b1-4)[Fuc(a1-3)]GlcNAc
# Summary of the method: as §1
# [6] = target: Neu5Ac(a2-3)Gal(b1-4)[Fuc(a1-3)]GlcNAc(b1-3)GalNAc
# Summary of the method: as §1
# [7] = target: Neu5Ac(a2-3)Gal(b1-4)[Fuc(a1-3)]GlcNAc(b1-6)[Gal(b1-3)]GalNAc
# Summary of the method: as §1
# [8] = target: Neu5Ac(a2-3)Gal(b1-4)[Fuc(a1-3)]GlcNAc(b1-6)[Neu5Ac(a2-3)Gal(b1-3)]GalNAc
# Summary of the method: as §1
# [9] = target: Neu5Ac(a2-3)Gal(b1-4)[Fuc(a1-3)]GlcNAc6S
# Summary of the method: as §1
# [10] = target: Neu5Ac(a2-3)Gal6S(b1-4)GlcNAc
# Summary of the method: as §1
# [11] = target: Neu5Ac(a2-3)Gal6S(b1-4)[Fuc(a1-3)]GlcNAc
# Summary of the method: as §1
# Neu5Ac(a2-3)GalNAc = target: Neu5Ac(a2-3)GalNAc
# Summary of the method: as §1
# [12] = target: Neu5Ac(a2-3)GalNAc(b1-4)GlcNAc
# Summary of the method: as §1
# [13] = target: Neu5Ac(a2-3)[GalNAc(b1-4)]Gal(b1-4)Glc
# Summary of the method: as §1
# [14] = target: Neu5Ac(a2-3)[GalNAc(b1-4)]Gal(b1-4)GlcNAc
# Summary of the method: as §1
# [15] = target: Neu5Ac(a2-3)[GalNAc(b1-4)]Gal(b1-4)GlcNAc(b1-3)GalNAc
# Summary of the method: as §1
# [16] = target: Neu5Ac(a2-3)[Neu5Ac(a2-6)]GalNAc
# Summary of the method: as §1
# Neu5Ac(a2-6)Gal = target: Neu5Ac(a2-6)Gal
# Summary of the method: as §1
# [17] = target: Neu5Ac(a2-6)Gal(b1-3)GlcNAc(b1-3)[Gal(b1-4)GlcNAc(b1-6)]Gal(b1-4)Glc
# Summary of the method: as §1
# Neu5Ac(a2-6)Gal(b1-4)Glc = target: Neu5Ac(a2-6)Gal(b1-4)Glc
# Summary of the method: as §1
# [18] = target: Neu5Ac(a2-6)Gal(b1-4)GlcNAc
# Summary of the method: as §1
# [19] = target: Neu5Ac(a2-6)Gal(b1-4)GlcNAc(b1-2)Man
# Summary of the method: as §1
# [20] = target: Neu5Ac(a2-6)Gal(b1-4)GlcNAc(b1-2)Man(a1-3)Man(b1-4)GlcNAc(b1-4)GlcNAc
# Summary of the method: as §1
# [21] = target: Neu5Ac(a2-6)Gal(b1-4)GlcNAc(b1-2)Man(a1-3)[Gal(b1-4)GlcNAc(b1-2)Man(a1-6)]Man(b1-4)GlcNAc(b1-4)GlcNAc
# Summary of the method: as §1
# [22] = target: Neu5Ac(a2-6)Gal(b1-4)GlcNAc(b1-2)Man(a1-3)[GlcNAc(b1-2)Man(a1-6)]Man(b1-4)GlcNAc(b1-4)GlcNAc
# Summary of the method: as §1
# [23] = target: Neu5Ac(a2-6)Gal(b1-4)GlcNAc(b1-2)Man(a1-3)[GlcNAc(b1-2)Man(b1-4)GlcNAc(b1-2)Man(a1-6)]Man(b1-4)GlcNAc(b1-4)GlcNAc
# Summary of the method: as §1
# [24] = target: Neu5Ac(a2-6)Gal(b1-4)GlcNAc(b1-2)Man(a1-3)[GlcNAc(b1-4)][Neu5Ac(a2-6)Gal(b1-4)GlcNAc(b1-2)Man(a1-6)]Man(b1-4)GlcNAc(b1-4)GlcNAc
# Summary of the method: as §1
# [25] = target: Neu5Ac(a2-6)Gal(b1-4)GlcNAc(b1-2)Man(a1-3)[Man(a1-6)]Man(b1-4)GlcNAc(b1-4)GlcNAc
# Summary of the method: as §1
# [26] = target: Neu5Ac(a2-6)Gal(b1-4)GlcNAc(b1-2)Man(a1-3)[Neu5Ac(a2-3)Gal(b1-4)GlcNAc(b1-2)Man(a1-6)]Man(b1-4)GlcNAc(b1-4)GlcNAc
# Summary of the method: as §1
# [27] = target: Neu5Ac(a2-6)Gal(b1-4)GlcNAc(b1-2)Man(a1-3)[Neu5Ac(a2-6)Gal(b1-4)GlcNAc(b1-2)Man(a1-6)]Man(b1-4)GlcNAc(b1-4)GlcNAc
# Summary of the method: as §1
# [28] = target: Neu5Ac(a2-6)Gal(b1-4)GlcNAc(b1-2)Man(a1-3)[Neu5Ac(a2-6)Gal(b1-4)GlcNAc(b1-2)Man(a1-6)]Man(b1-4)GlcNAc(b1-4)[Fuc(a1-6)]GlcNAc
# Summary of the method: as §1
# [29] = target: Neu5Ac(a2-6)Gal(b1-4)GlcNAc(b1-2)Man(a1-6)Man(b1-4)GlcNAc(b1-4)GlcNAc
# Summary of the method: as §1
# [30] = target: Neu5Ac(a2-6)Gal(b1-4)GlcNAc(b1-2)Man(a1-6)[Gal(b1-4)GlcNAc(b1-2)Man(a1-3)]Man(b1-4)GlcNAc(b1-4)GlcNAc
# Summary of the method: as §1
# [31] = target: Neu5Ac(a2-6)Gal(b1-4)GlcNAc(b1-2)Man(a1-6)[GlcNAc(b1-2)Man(a1-3)]Man(b1-4)GlcNAc(b1-4)GlcNAc
# Summary of the method: as §1
# [32] = target: Neu5Ac(a2-6)Gal(b1-4)GlcNAc(b1-2)Man(a1-6)[Man(a1-3)]Man(b1-4)GlcNAc(b1-4)GlcNAc
# Summary of the method: as §1
# [33] = target: Neu5Ac(a2-6)Gal(b1-4)GlcNAc(b1-2)[Neu5Ac(a2-6)Gal(b1-4)GlcNAc(b1-4)]Man(a1-3)[GlcNAc(b1-4)][Neu5Ac(a2-6)Gal(b1-4)GlcNAc(b1-2)[Neu5Ac(a2-6)Gal(b1-4)GlcNAc(b1-6)]Man(a1-6)]Man(b1-4)GlcNAc(b1-4)GlcNAc
# Summary of the method: as §1
# [34] = target: Neu5Ac(a2-6)Gal(b1-4)GlcNAc(b1-2)[Neu5Ac(a2-6)Gal(b1-4)GlcNAc(b1-4)]Man(a1-3)[GlcNAc(b1-4)][Neu5Ac(a2-6)Gal(b1-4)GlcNAc(b1-4)Man(a1-6)]Man(b1-4)GlcNAc(b1-4)GlcNAc
# Summary of the method: as §1
# [35] = target: Neu5Ac(a2-6)Gal(b1-4)GlcNAc(b1-2)[Neu5Ac(a2-6)Gal(b1-4)GlcNAc(b1-6)]Man(a1-6)[Neu5Ac(a2-6)Gal(b1-4)GlcNAc(b1-2)Man(a1-3)][GlcNAc(b1-4)]Man(b1-4)GlcNAc(b1-4)GlcNAc
# Summary of the method: as §1
# [36] = target: Neu5Ac(a2-6)Gal(b1-4)GlcNAc(b1-3)Gal(b1-3)GlcNAc
# Summary of the method: as §1
# [37] = target: Neu5Ac(a2-6)Gal(b1-4)GlcNAc(b1-3)Gal(b1-4)GlcNAc
# Summary of the method: as §1
# [38] = target: Neu5Ac(a2-6)Gal(b1-4)GlcNAc(b1-3)Gal(b1-4)GlcNAc(b1-2)Man(a1-3)[Neu5Ac(a2-6)Gal(b1-4)GlcNAc(b1-3)Gal(b1-4)GlcNAc(b1-2)Man(a1-6)]GalNAc
# Summary of the method: as §1
# [39] = target: Neu5Ac(a2-6)Gal(b1-4)GlcNAc(b1-3)Gal(b1-4)GlcNAc(b1-3)Gal(b1-4)GlcNAc
# Summary of the method: as §1
# [40] = target: Neu5Ac(a2-6)Gal(b1-4)GlcNAc(b1-3)Gal(b1-4)GlcNAc(b1-3)Gal(b1-4)GlcNAc(b1-2)Man(a1-3)[Neu5Ac(a2-6)Gal(b1-4)GlcNAc(b1-3)Gal(b1-4)GlcNAc(b1-3)Gal(b1-4)GlcNAc(b1-2)Man(a1-6)]GalNAc
# Summary of the method: as §1
# [41] = target: Neu5Ac(a2-6)Gal(b1-4)GlcNAc(b1-3)Gal(b1-4)GlcNAc(b1-3)GalNAc
# Summary of the method: as §1
binder,measurement,setting,value
B1,glycan array binding signal (z-score),[1],-0.193
same,glycan array binding signal (z-score),[2],-0.133
same,glycan array binding signal (z-score),[3],0.027
same,glycan array binding signal (z-score),[4],-0.058
same,glycan array binding signal (z-score),[5],-0.177
same,glycan array binding signal (z-score),[6],4.08
same,glycan array binding signal (z-score),[7],-0.06
same,glycan array binding signal (z-score),[8],0.235
same,glycan array binding signal (z-score),[9],-0.201
same,glycan array binding signal (z-score),[10],-0.124
same,glycan array binding signal (z-score),[11],-0.196
same,glycan array binding signal (z-score),Neu5Ac(a2-3)GalNAc,-0.21
same,glycan array binding signal (z-score),[12],-0.22
same,glycan array binding signal (z-score),[13],-0.167
same,glycan array binding signal (z-score),[14],-0.026
same,glycan array binding signal (z-score),[15],-0.132
same,glycan array binding signal (z-score),[16],-0.179
same,glycan array binding signal (z-score),Neu5Ac(a2-6)Gal,0.061
same,glycan array binding signal (z-score),[17],-0.133
same,glycan array binding signal (z-score),Neu5Ac(a2-6)Gal(b1-4)Glc,-0.157
same,glycan array binding signal (z-score),[18],-0.132
same,glycan array binding signal (z-score),[19],-0.134
same,glycan array binding signal (z-score),[20],-0.188
same,glycan array binding signal (z-score),[21],-0.19
same,glycan array binding signal (z-score),[22],0.942
same,glycan array binding signal (z-score),[23],-0.402
same,glycan array binding signal (z-score),[24],-0.147
same,glycan array binding signal (z-score),[25],-0.181
same,glycan array binding signal (z-score),[26],-0.138
same,glycan array binding signal (z-score),[27],-0.091
same,glycan array binding signal (z-score),[28],-0.132
same,glycan array binding signal (z-score),[29],-0.13
same,glycan array binding signal (z-score),[30],0.054
same,glycan array binding signal (z-score),[31],5.06
same,glycan array binding signal (z-score),[32],-0.185
same,glycan array binding signal (z-score),[33],-0.133
same,glycan array binding signal (z-score),[34],-0.129
same,glycan array binding signal (z-score),[35],-0.134
same,glycan array binding signal (z-score),[36],-0.164
same,glycan array binding signal (z-score),[37],-0.139
same,glycan array binding signal (z-score),[38],-0.13
same,glycan array binding signal (z-score),[39],-0.25
same,glycan array binding signal (z-score),[40],-0.135
same,glycan array binding signal (z-score),[41],-0.134
